# In the supplement of paper PMC8728848:
# The list shows a part of the results.
# B1: Cohesin-hDECTIN-1 (Homo sapiens) (protein)
# chain: LDITSHHHHHHDDLDAVRIKVDTVNAKPGDTVRIPVRFSGIPSKGIANCDFVYSYDPNVLEIIEIEPGDIIVDPNPDKSFDTAVYPDRKIIVFLFAEDSGTGAYAITKDGVFATIVAKVKEGAPNGLSVIKFVEVGGFANNDLVEQKTQFFDGGVNVGDTTEPATPTTPVTTPTTTDDLDAASSSPCPPNWIIYEKSCYLFSMSLNSWDGSKRQCWQLGSNLLKIDSSNELGFIVKQVSSQPDNSFWIGLSRPQTEVPWLWEDGSTFSSNLFQIRTTATQENPSPNCVWIHVSVIYDQLCSVPSYSICEKKFM
# Key:
# Assay in all cases: glycan array binding signal (z-score within array); higher = stronger binding
# Settings in all cases: glycan notation: IUPAC condensed, linker removed
# Fuc(a1-2)Gal = molecular target: Fuc(a1-2)Gal
# Outline: (§1)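 Negative Z-scores can be read as non-binding. The Z-score is calculated within each array and then averaged across arrays of one protein sequence at different concentrations or buffers and across linkers. Arrays, 3228 in all, were curated from the Consortium for Functional Glycomics database and kept only where the protein sequence was available.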
# Fuc(a1-2)Gal(b1-3)GalNAc = molecular target: Fuc(a1-2)Gal(b1-3)GalNAc
# Outline: as §1
# [1] = molecular target: Fuc(a1-2)Gal(b1-3)GalNAc(a1-3)[Fuc(a1-2)]Gal(b1-4)Glc
# Outline: as §1
# [2] = molecular target: Fuc(a1-2)Gal(b1-3)GalNAc(a1-3)[Fuc(a1-2)]Gal(b1-4)GlcNAc
# Outline: as §1
# [3] = molecular target: Fuc(a1-2)Gal(b1-3)GalNAc(b1-3)Gal
# Outline: as §1
# [4] = molecular target: Fuc(a1-2)Gal(b1-3)GalNAc(b1-3)Gal(a1-4)Gal(b1-4)Glc
# Outline: as §1
# [5] = molecular target: Fuc(a1-2)Gal(b1-3)GalNAc(b1-4)[Neu5Ac(a2-3)]Gal(b1-4)Glc
# Outline: as §1
# Fuc(a1-2)Gal(b1-3)GlcNAc = molecular target: Fuc(a1-2)Gal(b1-3)GlcNAc
# Outline: as §1
# [6] = molecular target: Fuc(a1-2)Gal(b1-3)GlcNAc(b1-2)Man(a1-3)[Fuc(a1-2)Gal(b1-3)GlcNAc(b1-2)Man(a1-6)]Man(b1-4)GlcNAc(b1-4)GlcNAc
# Outline: as §1
# [7] = molecular target: Fuc(a1-2)Gal(b1-3)GlcNAc(b1-2)Man(a1-3)[Fuc(a1-2)Gal(b1-3)GlcNAc(b1-2)Man(a1-6)]Man(b1-4)GlcNAc(b1-4)[Fuc(a1-6)]GlcNAc
# Outline: as §1
# [8] = molecular target: Fuc(a1-2)Gal(b1-3)GlcNAc(b1-3)Gal(b1-4)Glc
# Outline: as §1
# [9] = molecular target: Fuc(a1-2)Gal(b1-3)GlcNAc(b1-3)GalNAc
# Outline: as §1
# [10] = molecular target: Fuc(a1-2)Gal(b1-3)GlcNAc(b1-3)[Fuc(a1-2)Gal(b1-3)GlcNAc(b1-6)]GalNAc
# Outline: as §1
# [11] = molecular target: Fuc(a1-2)Gal(b1-3)GlcNAc(b1-3)[Gal(b1-4)GlcNAc(b1-6)]Gal(b1-4)Glc
# Outline: as §1
# [12] = molecular target: Fuc(a1-2)Gal(b1-3)GlcNAc(b1-3)[Neu5Ac(a2-6)Gal(b1-4)GlcNAc(b1-6)]Gal(b1-4)Glc
# Outline: as §1
# [13] = molecular target: Fuc(a1-2)Gal(b1-3)GlcNAc6S
# Outline: as §1
# [14] = molecular target: Fuc(a1-2)Gal(b1-3)[Fuc(a1-4)]GlcNAc
# Outline: as §1
# [15] = molecular target: Fuc(a1-2)Gal(b1-3)[Fuc(a1-4)]GlcNAc(b1-2)Man(a1-3)[Fuc(a1-2)Gal(b1-3)[Fuc(a1-4)]GlcNAc(b1-2)Man(a1-3)]Man(b1-4)GlcNAc(b1-4)GlcNAc
# Outline: as §1
# [16] = molecular target: Fuc(a1-2)Gal(b1-3)[Fuc(a1-4)]GlcNAc(b1-2)Man(a1-3)[Fuc(a1-2)Gal(b1-3)[Fuc(a1-4)]GlcNAc(b1-2)Man(a1-6)]Man(b1-4)GlcNAc(b1-4)[Fuc(a1-6)]GlcNAc(b1-4)[Fuc(a1-6)]GlcNAc
# Outline: as §1
# [17] = molecular target: Fuc(a1-2)Gal(b1-3)[Fuc(a1-4)]GlcNAc(b1-3)[Fuc(a1-3)[Gal(b1-4)]GlcNAc(b1-6)]Gal(b1-4)Glc
# Outline: as §1
# [18] = molecular target: Fuc(a1-2)Gal(b1-3)[Fuc(a1-4)]GlcNAc(b1-3)[Gal(b1-4)GlcNAc(b1-6)]Gal(b1-4)Glc
# Outline: as §1
# Fuc(a1-2)Gal(b1-4)Glc = molecular target: Fuc(a1-2)Gal(b1-4)Glc
# Outline: as §1
# Fuc(a1-2)Gal(b1-4)Glc6S = molecular target: Fuc(a1-2)Gal(b1-4)Glc6S
# Outline: as §1
# Fuc(a1-2)Gal(b1-4)GlcNAc = molecular target: Fuc(a1-2)Gal(b1-4)GlcNAc
# Outline: as §1
# [19] = molecular target: Fuc(a1-2)Gal(b1-4)GlcNAc(b1-2)Man
# Outline: as §1
# [20] = molecular target: Fuc(a1-2)Gal(b1-4)GlcNAc(b1-2)Man(a1-3)[Fuc(a1-2)Gal(b1-4)GlcNAc(b1-2)Man(a1-6)]Man(b1-4)GlcNAc(b1-4)GlcNAc
# Outline: as §1
# [21] = molecular target: Fuc(a1-2)Gal(b1-4)GlcNAc(b1-2)Man(a1-3)[Fuc(a1-2)Gal(b1-4)GlcNAc(b1-2)Man(a1-6)]Man(b1-4)GlcNAc(b1-4)[Fuc(a1-6)]GlcNAc
# Outline: as §1
# [22] = molecular target: Fuc(a1-2)Gal(b1-4)GlcNAc(b1-2)[Fuc(a1-2)Gal(b1-4)GlcNAc(b1-4)]Man(a1-3)[Fuc(a1-2)Gal(b1-4)GlcNAc(b1-2)Man(a1-6)]Man(b1-4)GlcNAc(b1-4)GlcNAc
# Outline: as §1
# [23] = molecular target: Fuc(a1-2)Gal(b1-4)GlcNAc(b1-3)Gal(b1-4)GlcNAc
# Outline: as §1
# [24] = molecular target: Fuc(a1-2)Gal(b1-4)GlcNAc(b1-3)Gal(b1-4)GlcNAc(b1-2)Man(a1-3)[Fuc(a1-2)Gal(b1-4)GlcNAc(b1-3)Gal(b1-4)GlcNAc(b1-2)Man(a1-6)]Man(b1-4)GlcNAc(b1-4)GlcNAc
# Outline: as §1
# [25] = molecular target: Fuc(a1-2)Gal(b1-4)GlcNAc(b1-3)Gal(b1-4)GlcNAc(b1-3)Gal(b1-4)GlcNAc
# Outline: as §1
# [26] = molecular target: Fuc(a1-2)Gal(b1-4)GlcNAc(b1-3)GalNAc
# Outline: as §1
# [27] = molecular target: Fuc(a1-2)Gal(b1-4)GlcNAc(b1-3)[Fuc(a1-2)Gal(b1-4)GlcNAc(b1-6)]GalNAc
# Outline: as §1
# [28] = molecular target: Fuc(a1-2)Gal(b1-4)GlcNAc(b1-3)[Fuc(a1-3)[Gal(b1-4)]GlcNAc(b1-6)]Gal(b1-4)Glc
# Outline: as §1
# [29] = molecular target: Fuc(a1-2)Gal(b1-4)GlcNAc(b1-6)GalNAc
# Outline: as §1
# [30] = molecular target: Fuc(a1-2)Gal(b1-4)GlcNAc6S
# Outline: as §1
# [31] = molecular target: Fuc(a1-2)Gal(b1-4)[Fuc(a1-3)]GlcNAc
# Outline: as §1
# [32] = molecular target: Fuc(a1-2)Gal(b1-4)[Fuc(a1-3)]GlcNAc(b1-2)Man(a1-3)[Fuc(a1-2)Gal(b1-4)[Fuc(a1-3)]GlcNAc(b1-2)Man(a1-6)]Man(b1-4)GlcNAc(b1-4)[Fuc(a1-6)]GlcNAc
# Outline: as §1
# [33] = molecular target: Fuc(a1-2)Gal(b1-4)[Fuc(a1-3)]GlcNAc(b1-2)[Fuc(a1-2)Gal(b1-4)[Fuc(a1-3)]GlcNAc(b1-4)]Man(a1-3)[Fuc(a1-2)Gal(b1-4)[Fuc(a1-3)]GlcNAc(b1-2)Man(a1-6)]Man(b1-4)GlcNAc(b1-4)GlcNAc
# Outline: as §1
# [34] = molecular target: Fuc(a1-2)Gal(b1-4)[Fuc(a1-3)]GlcNAc(b1-3)Gal(b1-4)[Fuc(a1-3)]GlcNAc
# Outline: as §1
# [35] = molecular target: Fuc(a1-2)Gal(b1-4)[Fuc(a1-3)]GlcNAc(b1-3)Gal(b1-4)[Fuc(a1-3)]GlcNAc(b1-3)Gal(b1-4)[Fuc(a1-3)]GlcNAc
# Outline: as §1
# [36] = molecular target: Fuc(a1-2)Gal(b1-4)[Fuc(a1-3)]GlcNAc(b1-3)GalNAc
# Outline: as §1
# [37] = molecular target: Fuc(a1-2)Gal(b1-4)[Fuc(a1-3)]GlcNAc(b1-3)[Neu5Ac(a2-6)Gal(b1-4)GlcNAc(b1-6)]Gal(b1-4)Glc
# Outline: as §1
# [38] = molecular target: Fuc(a1-2)Gal3S(b1-4)GlcNAc
# Outline: as §1
# [39] = molecular target: Fuc(a1-2)Gal6S(b1-3)GlcNAc
# Outline: as §1
binder,measurement,setting,value
B1,glycan array binding signal (z-score),Fuc(a1-2)Gal,-0.154
same,glycan array binding signal (z-score),Fuc(a1-2)Gal(b1-3)GalNAc,-0.466
same,glycan array binding signal (z-score),[1],-0.372
same,glycan array binding signal (z-score),[2],-0.105
same,glycan array binding signal (z-score),[3],1.86
same,glycan array binding signal (z-score),[4],-0.33
same,glycan array binding signal (z-score),[5],-0.071
same,glycan array binding signal (z-score),Fuc(a1-2)Gal(b1-3)GlcNAc,-0.165
same,glycan array binding signal (z-score),[6],-0.324
same,glycan array binding signal (z-score),[7],-0.43
same,glycan array binding signal (z-score),[8],-0.448
same,glycan array binding signal (z-score),[9],-0.413
same,glycan array binding signal (z-score),[10],-0.273
same,glycan array binding signal (z-score),[11],-0.528
same,glycan array binding signal (z-score),[12],-0.293
same,glycan array binding signal (z-score),[13],-0.469
same,glycan array binding signal (z-score),[14],-0.449
same,glycan array binding signal (z-score),[15],0.227
same,glycan array binding signal (z-score),[16],-0.321
same,glycan array binding signal (z-score),[17],-0.522
same,glycan array binding signal (z-score),[18],-0.342
same,glycan array binding signal (z-score),Fuc(a1-2)Gal(b1-4)Glc,-0.162
same,glycan array binding signal (z-score),Fuc(a1-2)Gal(b1-4)Glc6S,-0.338
same,glycan array binding signal (z-score),Fuc(a1-2)Gal(b1-4)GlcNAc,-0.178
same,glycan array binding signal (z-score),[19],0.002
same,glycan array binding signal (z-score),[20],0.617
same,glycan array binding signal (z-score),[21],-0.111
same,glycan array binding signal (z-score),[22],-0.246
same,glycan array binding signal (z-score),[23],-0.412
same,glycan array binding signal (z-score),[24],-0.262
same,glycan array binding signal (z-score),[25],-0.532
same,glycan array binding signal (z-score),[26],-0.382
same,glycan array binding signal (z-score),[27],-0.121
same,glycan array binding signal (z-score),[28],-0.613
same,glycan array binding signal (z-score),[29],2.93
same,glycan array binding signal (z-score),[30],-0.366
same,glycan array binding signal (z-score),[31],-0.379
same,glycan array binding signal (z-score),[32],-0.299
same,glycan array binding signal (z-score),[33],-0.326
same,glycan array binding signal (z-score),[34],-0.617
same,glycan array binding signal (z-score),[35],-0.245
same,glycan array binding signal (z-score),[36],0.243
same,glycan array binding signal (z-score),[37],-0.493
same,glycan array binding signal (z-score),[38],-0.428
same,glycan array binding signal (z-score),[39],-0.395
